Consider 25 compounds from the supplement of paper PMC10037445.

Assay [1] deals with RAW-Dual. The experiment in a line: NF-kB SEAP reporter activity, fold change vs agonist alone; cytotoxicity flag (confluency mask): cytotoxic (confluency <70% of control); higher = enhanced NF-kB activity. The procedure, abridged:
(§1)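 Cytotoxic wells were those whose IncuCyte confluency was below 70% of agonist controls in both mask sets. The cells were RAW-Dual macrophages at 50,000 cells/well in DMEM on 384-well plates, dosed with 50 nL of library stock by pin tool, stimulated with a PRR agonist 1 h later, and kept at 37 °C, 5% CO2 for 20 hours. IRF and NF-κB reporter activity, as fold change over agonist-alone wells, came from supernatant read by QuantiLuc luminescence and QuantiBlue absorbance, respectively.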

In assay [2] the test system is RAW-Dual. The experiment in a line: NF-kB SEAP reporter activity, fold change vs agonist alone; higher = enhanced NF-kB activity. To be noted: library stock concentration (final ~1000-fold dilution): 10 mM. The procedure, abridged: as §1
The test system of assay [3] is RAW-Dual. Put plainly: NF-kB SEAP reporter activity, fold change vs agonist alone; cytotoxicity flag (confluency mask): not cytotoxic; higher = enhanced NF-kB activity. The procedure, abridged:
as §1

Setting [4] is: agonist: ODN 1826 (TLR9) 0.5 ug/mL.
Where [5] appears, read: agonist: Pam2CSK4 (TLR2/6) 0.1 ug/mL.
[6] abbreviates: agonist: Pam3CSK4 (TLR2/1) 0.1 ug/mL.
Where [7] appears, read: cytotoxicity flag (confluency mask): cytotoxic (confluency <70% of control), agonist: Imiquimod (TLR7) […].
Setting [8] is: cytotoxicity flag (confluency mask): cytotoxic (confluency <70% of control), agonist: MPLA (TLR4) […].
Where [9] appears, read: cytotoxicity flag (confluency mask): not cytotoxic, agonist: Imiquimod (TLR7) […].
The mark [10] stands for this setting: cytotoxicity flag (confluency mask): not cytotoxic, agonist: MPLA (TLR4) […].

Each structure is given as a SMILES string. Over roughly 2,900 compounds, “NF-kB SEAP reporter activity, fold change vs agonist alone” has its median near 0.99; the highest 2% begin near 2.6. Some of the results follow.

Regarding `N#C/C(=C/c1ccc(-c2cc(Cl)ccc2Cl)o1)C(=O)Nc1cccc2ncccc12` (library stock concentration (final ~1000-fold dilution): 10 mM), the “NF-kB SEAP reporter activity” value with RAW-Dual [1] (agonist: LPS (TLR4) 0.1 ug/mL) is 1.1; in the assay on RAW-Dual [1] (setting [4]), 0.888; in the assay with RAW-Dual [1] (setting [5]), 0.905; in the assay on RAW-Dual [1] (setting [6]) it was 0.992.

Regarding `N#C/C(=C/c1ccc(-c2cc(Cl)ccc2Cl)o1)C(=O)Nc1cccc2ncccc12`, the “NF-kB SEAP reporter activity” value with RAW-Dual [2] (setting [7]) stood at 0.819; in the assay with RAW-Dual [2] (setting [8]), 1.31.

For `CCCC(=O)OC[C@@H](OC(=O)CCC)[C@@H](OC(=O)CCC)[C@H](Cn1c2nc(=O)[nH]c(=O)c-2nc2cc(C)c(C)cc21)OC(=O)CCC`, the “NF-kB SEAP reporter activity” value in the assay on RAW-Dual [2] (setting [9]) was 1.26; with RAW-Dual [2] (setting [10]) it was 1.41.

In the case of `CCCC(=O)OC[C@@H](OC(=O)CCC)[C@@H](OC(=O)CCC)[C@H](Cn1c2nc(=O)[nH]c(=O)c-2nc2cc(C)c(C)cc21)OC(=O)CCC` (library stock concentration (final ~1000-fold dilution): 10 mM), the “NF-kB SEAP reporter activity” value turned out to be 1.46 in the assay on RAW-Dual [3] (agonist: LPS (TLR4) 0.1 ug/mL), 1.13 in the assay with RAW-Dual [3] (setting [4]), 1.12 in the assay with RAW-Dual [3] (setting [5]) and 1.4 in the assay with RAW-Dual [3] (setting [6]).

In the case of `CCCn1c(NC(=O)c2cccc(C(N)=O)c2)nc2ccccc21` (library stock concentration (final ~1000-fold dilution): 10 mM), the “NF-kB SEAP reporter activity” value came to 0.482 with RAW-Dual [3] (agonist: LPS (TLR4) 0.1 ug/mL), 0.333 in the assay on RAW-Dual [3] (setting [4]), 0.143 in the assay on RAW-Dual [3] (setting [5]) and 0.205 in the assay with RAW-Dual [3] (setting [6]).

For the compound `CCCn1c(NC(=O)c2cccc(C(N)=O)c2)nc2ccccc21`, the “NF-kB SEAP reporter activity” value with RAW-Dual [2] (setting [9]) was determined as 0.36; in the assay with RAW-Dual [2] (setting [10]), 0.54.

As to `O=C(CCc1ccc(O)cc1)c1c(O)cc(O)cc1O` (library stock concentration (final ~1000-fold dilution): 10 mM), the “NF-kB SEAP reporter activity” value was 1.09 in the assay on RAW-Dual [3] (agonist: LPS (TLR4) 0.1 ug/mL), 1.21 in the assay on RAW-Dual [3] (setting [4]), 1.15 in the assay with RAW-Dual [3] (setting [5]) and 1.12 in the assay with RAW-Dual [3] (setting [6]).

Consider `O=C(CCc1ccc(O)cc1)c1c(O)cc(O)cc1O`, for which the “NF-kB SEAP reporter activity” value in the assay with RAW-Dual [2] (setting [9]) was 1.18; in the assay on RAW-Dual [2] (setting [10]), 1.12.

Consider `Cc1cn(CCN2CCN(c3ccccc3-c3cc(C#N)cc(C(=O)NCCCN4CCCC4)c3)CC2)c2ccccc12`, for which the “NF-kB SEAP reporter activity” value was found to be 0.283 in the assay with RAW-Dual [2] (setting [7]) and 0.248 with RAW-Dual [2] (setting [8]).

Turning to `Cc1cn(CCN2CCN(c3ccccc3-c3cc(C#N)cc(C(=O)NCCCN4CCCC4)c3)CC2)c2ccccc12` (library stock concentration (final ~1000-fold dilution): 10 mM), the “NF-kB SEAP reporter activity” value amounted to 0.181 in the assay with RAW-Dual [1] (agonist: LPS (TLR4) 0.1 ug/mL), 0.229 in the assay with RAW-Dual [1] (setting [4]), 0.0813 in the assay with RAW-Dual [1] (setting [5]) and 0.157 in the assay on RAW-Dual [1] (setting [6]).

On to `N#Cc1cccc(-c2c[nH]c3ncnc(N4CCOCC4)c23)c1`, for which the “NF-kB SEAP reporter activity” value is 1.01 in the assay with RAW-Dual [2] (setting [9]) and 0.873 in the assay on RAW-Dual [2] (setting [10]).

Regarding `N#Cc1cccc(-c2c[nH]c3ncnc(N4CCOCC4)c23)c1` (library stock concentration (final ~1000-fold dilution): 10 mM), the “NF-kB SEAP reporter activity” value in the assay with RAW-Dual [3] (agonist: LPS (TLR4) 0.1 ug/mL) amounted to 0.963; with RAW-Dual [3] (setting [4]) it was 0.792; in the assay with RAW-Dual [3] (setting [5]) it was 0.588; with RAW-Dual [3] (setting [6]) it was 0.962.

In the case of `CN(CC(=O)N(Cc1ccc(C2CCCCC2)cc1)c1ccc(C(=O)O)cc1)S(=O)(=O)c1c(F)c(F)c(F)c(F)c1F` (library stock concentration (final ~1000-fold dilution): 10 mM), the “NF-kB SEAP reporter activity” value was 0.526 in the assay with RAW-Dual [1] (agonist: LPS (TLR4) 0.1 ug/mL), 1.82 in the assay with RAW-Dual [1] (setting [4]), 0.512 in the assay on RAW-Dual [1] (setting [5]) and 0.635 in the assay with RAW-Dual [1] (setting [6]).

`CN(CC(=O)N(Cc1ccc(C2CCCCC2)cc1)c1ccc(C(=O)O)cc1)S(=O)(=O)c1c(F)c(F)c(F)c(F)c1F`: the results for the “NF-kB SEAP reporter activity” value in the assay on RAW-Dual [2] (setting [7]) and in the assay with RAW-Dual [2] (setting [8]) were 1.25 and 0.918, respectively.

For the compound `OC(CNCC(O)C1CCc2cc(F)ccc2O1)C1CCc2cc(F)ccc2O1` (centres undefined), the “NF-kB SEAP reporter activity” value in the assay with RAW-Dual [2] (setting [7]) came to 1.43; in the assay on RAW-Dual [2] (setting [8]) it was 1.23.

Take `OC(CNCC(O)C1CCc2cc(F)ccc2O1)C1CCc2cc(F)ccc2O1` (centres undefined) (library stock concentration (final ~1000-fold dilution): 10 mM): the “NF-kB SEAP reporter activity” value with RAW-Dual [1] (agonist: LPS (TLR4) 0.1 ug/mL) was found to be 0.802; in the assay with RAW-Dual [1] (setting [4]), 0.486; in the assay on RAW-Dual [1] (setting [5]) it was 0.658; with RAW-Dual [1] (setting [6]) it was 0.324.

With `CC(=O)O/N=C1/C(=O)N(Cc2cc(Cl)ccc2Cl)c2ccc(Cl)cc21` (library stock concentration (final ~1000-fold dilution): 10 mM), the “NF-kB SEAP reporter activity” value in the assay on RAW-Dual [3] (agonist: LPS (TLR4) 0.1 ug/mL) is 0.527; with RAW-Dual [3] (setting [4]), 0.669; in the assay with RAW-Dual [3] (setting [5]) it was 0.801; in the assay with RAW-Dual [3] (setting [6]), 0.323.

With `CC(=O)O/N=C1/C(=O)N(Cc2cc(Cl)ccc2Cl)c2ccc(Cl)cc21`, the entries for the “NF-kB SEAP reporter activity” value in the assay on RAW-Dual [2] (setting [9]) and in the assay with RAW-Dual [2] (setting [10]) were 0.428 and 1.12, respectively.

Regarding `NC(=O)C1CCC2CN1C(=O)N2OS(=O)(=O)O` (centres undefined) (library stock concentration (final ~1000-fold dilution): 10 mM), the “NF-kB SEAP reporter activity” value in the assay with RAW-Dual [3] (agonist: LPS (TLR4) 0.1 ug/mL) was 0.95; in the assay with RAW-Dual [3] (setting [4]), 0.976; with RAW-Dual [3] (setting [5]), 0.98; with RAW-Dual [3] (setting [6]), 1.09.

On to `NC(=O)C1CCC2CN1C(=O)N2OS(=O)(=O)O` (centres undefined), for which the “NF-kB SEAP reporter activity” value in the assay on RAW-Dual [2] (setting [9]) amounted to 0.954; in the assay with RAW-Dual [2] (setting [10]), 0.972.

On to `CC(C)(C#N)c1cc(Cn2cncn2)cc(C(C)(C)C#N)c1` (library stock concentration (final ~1000-fold dilution): 10 mM), for which the “NF-kB SEAP reporter activity” value in the assay on RAW-Dual [3] (agonist: LPS (TLR4) 0.1 ug/mL) turned out to be 1.35; in the assay on RAW-Dual [3] (setting [4]) it was 0.953; in the assay on RAW-Dual [3] (setting [5]), 0.983; with RAW-Dual [3] (setting [6]), 0.948.

As to `CC(C)(C#N)c1cc(Cn2cncn2)cc(C(C)(C)C#N)c1`, the “NF-kB SEAP reporter activity” value in the assay with RAW-Dual [2] (setting [9]) came out at 0.889; in the assay with RAW-Dual [2] (setting [10]), 1.04.

In the case of `COc1cc2nccc(Oc3ccc(NC(=O)Nc4cc(C)on4)c(Cl)c3)c2cc1OC`, the “NF-kB SEAP reporter activity” value in the assay with RAW-Dual [2] (setting [9]) worked out at 0.333; with RAW-Dual [2] (setting [10]), 0.365.

For `COc1cc2nccc(Oc3ccc(NC(=O)Nc4cc(C)on4)c(Cl)c3)c2cc1OC` (library stock concentration (final ~1000-fold dilution): 10 mM), the “NF-kB SEAP reporter activity” value is 0.306 in the assay with RAW-Dual [3] (agonist: LPS (TLR4) 0.1 ug/mL), 0.244 in the assay with RAW-Dual [3] (setting [4]), 0.095 in the assay on RAW-Dual [3] (setting [5]) and 0.174 in the assay with RAW-Dual [3] (setting [6]).

In the case of `CC(C)CC(NC(=O)C(O)C(N)Cc1ccccc1)C(=O)O` (centres undefined), the “NF-kB SEAP reporter activity” value worked out at 0.903 in the assay with RAW-Dual [2] (setting [9]) and 0.937 with RAW-Dual [2] (setting [10]).
